# The supplement of paper PMC8728848
# Some of the results follow.
# B1: Cohesin-marm-DC-ASGPR (protein)
# chain: LDITSHHHHHHDDLDAVRIKVDTVNAKPGDTVRIPVRFSGIPSKGIANCDFVYSYDPNVLEIIEIEPGDIIVDPNPDKSFDTAVYPDRKIIVFLFAEDSGTGAYAITKDGVFATIVAKVKEGAPNGLSVIKFVEVGGFANNDLVEQKTQFFDGGVNVGDTTEPATPTTPVTTPTTTDDLDAASSKFQRDLVTLRTDFSNFTSNTLAEIQALTSQGSSLQETIASLKAEVEGHKQELQAGASELQEHNKQKAHLGRCPHTCVCPSSFVCVPVHSEILLRVQQLVQDLNKLSCQVAILKNNATTERTCCPINWVEHQGSCYWFSRSGKTWPEAERYCQLENTHLVVINSREEQNFVQAHLGSAYTWMGLSDPEGVWKWVDGTDYSSGFQNWKPGQPDDWQGHGLGGGEDCAHFHPDGRWNDDVCQRSYHWVCEAGLTQASQDSHAS
# How the values were obtained:
# Test in all cases: glycan array binding signal (z-score within array); higher = stronger binding
# Details in all cases: glycan notation: IUPAC condensed, linker removed
# Neu5Ac(a2-8)Neu5Ac = biological target: Neu5Ac(a2-8)Neu5Ac
# Outline: (§1)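 Negative Z-scores can be read as non-binding. The Z-score is calculated within each array and then averaged across arrays of one protein sequence at different concentrations or buffers and across linkers. Arrays, 3228 in all, were curated from the Consortium for Functional Glycomics database and kept only where the protein sequence was available.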
# [1] = biological target: Neu5Ac(a2-8)Neu5Ac(a2-3)Gal(b1-3)GalNAc(b1-4)[Neu5Ac(a2-3)]Gal(b1-4)Glc
# Outline: as §1
# [2] = biological target: Neu5Ac(a2-8)Neu5Ac(a2-3)Gal(b1-3)GalNAc(b1-4)[Neu5Ac(a2-8)Neu5Ac(a2-3)]Gal(b1-4)Glc
# Outline: as §1
# [3] = biological target: Neu5Ac(a2-8)Neu5Ac(a2-3)Gal(b1-4)Glc
# Outline: as §1
# [4] = biological target: Neu5Ac(a2-8)Neu5Ac(a2-3)Gal(b1-4)GlcNAc
# Outline: as §1
# [5] = biological target: Neu5Ac(a2-8)Neu5Ac(a2-3)[Gal(b1-3)GalNAc(b1-4)]Gal(b1-4)Glc
# Outline: as §1
# [6] = biological target: Neu5Ac(a2-8)Neu5Ac(a2-3)[GalNAc(b1-4)]Gal(b1-4)Glc
# Outline: as §1
# [7] = biological target: Neu5Ac(a2-8)Neu5Ac(a2-8)Neu5Ac
# Outline: as §1
# [8] = biological target: Neu5Ac(a2-8)Neu5Ac(a2-8)Neu5Ac(a2-3)Gal(b1-4)Glc
# Outline: as §1
# [9] = biological target: Neu5Ac(a2-8)Neu5Ac(a2-8)Neu5Ac(a2-3)[Gal(b1-3)GalNAc(b1-4)]Gal(b1-4)Glc
# Outline: as §1
# [10] = biological target: Neu5Ac(a2-8)Neu5Ac(a2-8)Neu5Ac(a2-3)[GalNAc(b1-4)]Gal(b1-4)Glc
# Outline: as §1
# [11] = biological target: Neu5Ac(a2-8)Neu5Ac(a2-8)Neu5Ac(a2-8)Neu5Ac(a2-3)[GalNAc(b1-4)]Gal(b1-4)Glc
# Outline: as §1
# [12] = biological target: Neu5Ac(a2-8)Neu5Gc(a2-3)Gal(b1-4)GlcNAc
# Outline: as §1
# [13] = biological target: Neu5Ac(b2-6)Gal(b1-4)GlcNAc
# Outline: as §1
# Neu5Ac(b2-6)GalNAc = biological target: Neu5Ac(b2-6)GalNAc
# Outline: as §1
# [14] = biological target: Neu5Ac9Ac(a2-3)Gal(b1-3)GlcNAc
# Outline: as §1
# [15] = biological target: Neu5Ac9Ac(a2-3)Gal(b1-4)GlcNAc
# Outline: as §1
# [16] = biological target: Neu5Ac9Ac(a2-6)Gal(b1-4)GlcNAc
# Outline: as §1
# [17] = biological target: Neu5Gc(a2-3)Gal(b1-3)GlcNAc
# Outline: as §1
# [18] = biological target: Neu5Gc(a2-3)Gal(b1-3)[Fuc(a1-4)]GlcNAc
# Outline: as §1
# Neu5Gc(a2-3)Gal(b1-4)Glc = biological target: Neu5Gc(a2-3)Gal(b1-4)Glc
# Outline: as §1
# [19] = biological target: Neu5Gc(a2-3)Gal(b1-4)GlcNAc
# Outline: as §1
# [20] = biological target: Neu5Gc(a2-3)Gal(b1-4)GlcNAc(b1-3)Gal(b1-4)GlcNAc(b1-2)Man(a1-3)[Neu5Gc(a2-3)Gal(b1-4)GlcNAc(b1-3)Gal(b1-4)GlcNAc(b1-2)Man(a1-6)]Man(b1-4)GlcNAc(b1-4)GlcNAc
# Outline: as §1
# [21] = biological target: Neu5Gc(a2-3)Gal(b1-4)[Fuc(a1-3)]GlcNAc
# Outline: as §1
# [22] = biological target: Neu5Gc(a2-6)Gal(b1-4)GlcNAc
# Outline: as §1
# Neu5Gc(a2-6)GalNAc = biological target: Neu5Gc(a2-6)GalNAc
# Outline: as §1
# [23] = biological target: Neu5Gc(a2-8)Neu5Ac(a2-3)Gal(b1-4)GlcNAc
# Outline: as §1
# [24] = biological target: Neu5Gc(a2-8)Neu5Gc(a2-3)Gal(b1-4)GlcNAc
# Outline: as §1
# [25] = biological target: Neu5Gc(a2-8)Neu5Gc(a2-3)Gal(b1-4)GlcNAc(b1-3)Gal(b1-4)GlcNAc
# Outline: as §1
# [26] = biological target: Neu5Gc(a2-8)Neu5Gc(a2-6)Gal(b1-4)GlcNAc
# Outline: as §1
# [27] = biological target: Neu5Gc(b2-6)Gal(b1-4)GlcNAc
# Outline: as §1
binder,measurement,setting,value
B1,glycan array binding signal (z-score),Neu5Ac(a2-8)Neu5Ac,-0.306
same,glycan array binding signal (z-score),[1],-0.301
same,glycan array binding signal (z-score),[2],-0.296
same,glycan array binding signal (z-score),[3],-0.303
same,glycan array binding signal (z-score),[4],-0.238
same,glycan array binding signal (z-score),[5],-0.05
same,glycan array binding signal (z-score),[6],3.43
same,glycan array binding signal (z-score),[7],-0.309
same,glycan array binding signal (z-score),[8],-0.311
same,glycan array binding signal (z-score),[9],-0.305
same,glycan array binding signal (z-score),[10],2.25
same,glycan array binding signal (z-score),[11],5.27
same,glycan array binding signal (z-score),[12],-0.302
same,glycan array binding signal (z-score),[13],-0.312
same,glycan array binding signal (z-score),Neu5Ac(b2-6)GalNAc,-0.276
same,glycan array binding signal (z-score),[14],0.049
same,glycan array binding signal (z-score),[15],-0.291
same,glycan array binding signal (z-score),[16],-0.219
same,glycan array binding signal (z-score),[17],-0.264
same,glycan array binding signal (z-score),[18],-0.277
same,glycan array binding signal (z-score),Neu5Gc(a2-3)Gal(b1-4)Glc,-0.276
same,glycan array binding signal (z-score),[19],-0.169
same,glycan array binding signal (z-score),[20],-0.276
same,glycan array binding signal (z-score),[21],-0.107
same,glycan array binding signal (z-score),[22],-0.285
same,glycan array binding signal (z-score),Neu5Gc(a2-6)GalNAc,2.81
same,glycan array binding signal (z-score),[23],-0.308
same,glycan array binding signal (z-score),[24],-0.287
same,glycan array binding signal (z-score),[25],-0.303
same,glycan array binding signal (z-score),[26],-0.31
same,glycan array binding signal (z-score),[27],-0.304
